Our source for the binding values is article PMC11403517.

Like-named read-outs stand apart in the source and are kept apart here. No constants are given. Whether binding was seen depends on the method and setting. Binding seen in cells or lysates may run through a third protein. Some binding calls cover weakened binding; strength is not graded here. For some of these results: Tags and fused reporters may be left off the sequences shown.

Assay [1] deals with HA-P300 (UniProt Q09472). Kind of assay: co-IP; HEK293T transfected 24 h, Igepal lysis buffer (150 mM NaCl, 50 mM Tris-HCl pH 8.0, 5 mM MgCl2, 0.8% Igepal CA-630); HA-P300 precipitated with anti-HA and ProtG beads, 1 h 4 °C; immunoblotting; RIG-I co-expressed in Figure 5D.
The target in another assay is T1, GFP-IRF3 (UniProt Q14653).
T1 sequence: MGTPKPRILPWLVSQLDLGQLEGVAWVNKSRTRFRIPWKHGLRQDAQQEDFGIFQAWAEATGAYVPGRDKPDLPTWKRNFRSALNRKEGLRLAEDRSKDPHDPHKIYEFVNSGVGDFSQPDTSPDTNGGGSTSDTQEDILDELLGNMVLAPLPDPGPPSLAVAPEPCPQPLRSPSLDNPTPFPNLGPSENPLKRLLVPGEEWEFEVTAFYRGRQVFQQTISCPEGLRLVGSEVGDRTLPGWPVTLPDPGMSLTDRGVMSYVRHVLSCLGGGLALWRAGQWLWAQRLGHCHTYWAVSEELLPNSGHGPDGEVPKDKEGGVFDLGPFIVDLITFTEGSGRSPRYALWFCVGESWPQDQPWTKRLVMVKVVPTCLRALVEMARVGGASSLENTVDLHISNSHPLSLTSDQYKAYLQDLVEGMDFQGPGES
As to the kind of experiment: co-IP; HEK293T transfected 24 h with GFP-IRF3 and RIG-I, Igepal lysis buffer; GFP-IRF3 precipitated with GFP-Trap beads, 1 h 4 °C; immunoblotting.

Assay [2] addresses HA-P300 (UniProt Q09472). Kind of assay: co-IP; HEK293T transfected 24 h, Igepal lysis buffer (150 mM NaCl, 50 mM Tris-HCl pH 8.0, 5 mM MgCl2, 0.8% Igepal CA-630); HA-P300 precipitated with anti-HA and ProtG beads, 1 h 4 °C; immunoblotting; RIG-I co-expressed in Figure 5D. This is another data set of the same source.

On to “FLAG-EBNA3A truncation mutant v (820-944) (from UniProt P12977 820-944) (domain or fragment)”, for which, in the assay with HA-P300 [1], the binding entry is given as “no binding”. In the case of “FLAG-EBNA3A truncation mutant vi (280-819) (from UniProt P12977 280-819) (domain or fragment)”, the binding result in the assay with HA-P300 [1] was “no binding”. Still for that read-out and setting: the entry for “FLAG-EBNA3A truncation mutant iv (1-826) (from UniProt P12977 1-826) (domain or fragment)” is “binds”; for “FLAG-EBNA3A truncation mutant ii (1-240) (from UniProt P12977 1-240) (domain or fragment)” it is “binds”; for “FLAG-EBNA3A truncation mutant iii (1-523) (from UniProt P12977 1-523) (domain or fragment)” it is “binds”.

B1: Epstein-Barr virus nuclear antigen 3A (EBNA3A), as expressed in the co-immunoprecipitations of Figures 4C and 5E (protein, UniProt P12977 1-944)
chain: MDKDRPGPPALDDNMEEEVPSTSVVQEQVSAGDWENVLIELSDSSSEKEAEDAHLEPAQKGTKRKRVDHDAGGSAPARPMLPPQPDLPGREAILRRFPLDLRTLLQAIGAAATRIDTRAIDQFFGSQISNTEMYIMYAMAIRQAIRDRRRNPASRRDQAKWRLQTLAAGWPMGYQAYSSWMYSYTDHQTTPTFVHLQATLGCTGGRRCHVTFSAGTFKLPRCTPGDRQWLYVQSSVGNIVQSCNPRYSIFFDYMAIHRSLTKIWEEVLTPDQRVSFMEFLGFLQRTDLSYIKSFVSDALGTTSIQTPWIDDNPSTETAQAWNAGFLRGRAYGIDLLRTEGEHVEGATGETREESEDTESDGDDEDLPCIVSRGGPKVKRPPIFIRRLHRLLLMRAGKRTEQGKEVLEKARGSTYGTPRPPVPKPRPEVPQSDETATSHGSAQVPEPPTIHLAAQGMAYPLHEQHGMAPCPVAQAPPTPLPPVSPGDQLPGVFSDGRVACAPVPAPAGPIVRPWEPSLTQAAGQAFAPVRPQHMPVEPVPVPTVALERPVYPKPVRPAPPKIAMQGPGETSGIRRARERWRPAPWTPNPPRSPSQMSVRDRLARLRAEAQVKQASVEVQPPQLTQVSPQQPMEGPLVPEQQMFPGAPFSQVADVVRAPGVPAMQPQYFDLPLIQPISQGAPVAPLRASMGPVPPVPATQPQYFDIPLTEPINQGASAAHFLPQQPMEGPLVPEQWMFPGAALSQSVRPGVAQSQYFDLPLTQPINHGAPAAHFLHQPPMEGPWVPEQWMFQGAPPSQGTDVVQHQLDALGYTLHGLNHPGVPVSPAVNQYHLSQAAFGLPIDEDESGEGSDTSEPCEALDLSIHGRPCPQAPEWPVQEEGGQDATEVLDLSIHGRPRPRTPEWPVQGEGGQNVTGPETRRVVVSAVVHMCQDDEFPDLQDPPDEA
Turning to B1, the binding entry with GFP-IRF3 and in the assay with HA-P300 [2] was “binds” in each case.

B2: FLAG-EBNA3A full-length (i) (protein, UniProt P12977 1-944)
chain: MDKDRPGPPALDDNMEEEVPSTSVVQEQVSAGDWENVLIELSDSSSEKEAEDAHLEPAQKGTKRKRVDHDAGGSAPARPMLPPQPDLPGREAILRRFPLDLRTLLQAIGAAATRIDTRAIDQFFGSQISNTEMYIMYAMAIRQAIRDRRRNPASRRDQAKWRLQTLAAGWPMGYQAYSSWMYSYTDHQTTPTFVHLQATLGCTGGRRCHVTFSAGTFKLPRCTPGDRQWLYVQSSVGNIVQSCNPRYSIFFDYMAIHRSLTKIWEEVLTPDQRVSFMEFLGFLQRTDLSYIKSFVSDALGTTSIQTPWIDDNPSTETAQAWNAGFLRGRAYGIDLLRTEGEHVEGATGETREESEDTESDGDDEDLPCIVSRGGPKVKRPPIFIRRLHRLLLMRAGKRTEQGKEVLEKARGSTYGTPRPPVPKPRPEVPQSDETATSHGSAQVPEPPTIHLAAQGMAYPLHEQHGMAPCPVAQAPPTPLPPVSPGDQLPGVFSDGRVACAPVPAPAGPIVRPWEPSLTQAAGQAFAPVRPQHMPVEPVPVPTVALERPVYPKPVRPAPPKIAMQGPGETSGIRRARERWRPAPWTPNPPRSPSQMSVRDRLARLRAEAQVKQASVEVQPPQLTQVSPQQPMEGPLVPEQQMFPGAPFSQVADVVRAPGVPAMQPQYFDLPLIQPISQGAPVAPLRASMGPVPPVPATQPQYFDIPLTEPINQGASAAHFLPQQPMEGPLVPEQWMFPGAALSQSVRPGVAQSQYFDLPLTQPINHGAPAAHFLHQPPMEGPWVPEQWMFQGAPPSQGTDVVQHQLDALGYTLHGLNHPGVPVSPAVNQYHLSQAAFGLPIDEDESGEGSDTSEPCEALDLSIHGRPCPQAPEWPVQEEGGQDATEVLDLSIHGRPRPRTPEWPVQGEGGQNVTGPETRRVVVSAVVHMCQDDEFPDLQDPPDEA
In the case of B2, the binding result in the assay with GFP-IRF3 and in the assay with HA-P300 [2] was “binds” each time.

B3: interferon regulatory factor 3 (IRF3), detected in HA-P300 immunoprecipitates of Figure 5D (protein, UniProt Q14653 1-427)
chain: MGTPKPRILPWLVSQLDLGQLEGVAWVNKSRTRFRIPWKHGLRQDAQQEDFGIFQAWAEATGAYVPGRDKPDLPTWKRNFRSALNRKEGLRLAEDRSKDPHDPHKIYEFVNSGVGDFSQPDTSPDTNGGGSTSDTQEDILDELLGNMVLAPLPDPGPPSLAVAPEPCPQPLRSPSLDNPTPFPNLGPSENPLKRLLVPGEEWEFEVTAFYRGRQVFQQTISCPEGLRLVGSEVGDRTLPGWPVTLPDPGMSLTDRGVMSYVRHVLSCLGGGLALWRAGQWLWAQRLGHCHTYWAVSEELLPNSGHGPDGEVPKDKEGGVFDLGPFIVDLITFTEGSGRSPRYALWFCVGESWPQDQPWTKRLVMVKVVPTCLRALVEMARVGGASSLENTVDLHISNSHPLSLTSDQYKAYLQDLVEGMDFQGPGES
For B3, the binding entry with HA-P300 [2] is on record as “binds”.
